Measurements published in publication PMC10726135.
This is one part of the list. At the low end of the ranking, values are background and their order means little. The protein was read in a cell extract, so binding may be indirect.

Biological target: T1, HNF4alpha2 (COS-7 nuclear extract) (UniProt P41235)
T1 sequence: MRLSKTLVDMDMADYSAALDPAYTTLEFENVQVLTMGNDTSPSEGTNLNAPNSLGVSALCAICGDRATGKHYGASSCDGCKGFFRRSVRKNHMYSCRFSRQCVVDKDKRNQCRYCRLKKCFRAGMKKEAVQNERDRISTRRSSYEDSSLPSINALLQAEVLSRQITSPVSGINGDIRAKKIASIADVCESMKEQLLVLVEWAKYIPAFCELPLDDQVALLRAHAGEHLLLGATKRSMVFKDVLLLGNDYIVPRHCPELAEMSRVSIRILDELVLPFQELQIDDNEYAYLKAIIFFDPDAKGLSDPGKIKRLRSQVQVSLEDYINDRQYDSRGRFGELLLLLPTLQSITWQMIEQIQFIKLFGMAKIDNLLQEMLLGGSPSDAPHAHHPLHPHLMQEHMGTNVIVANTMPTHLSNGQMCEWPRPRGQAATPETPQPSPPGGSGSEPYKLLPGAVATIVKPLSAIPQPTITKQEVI
Assay: protein-binding microarray
Conditions: COS-7 nuclear extract on double-stranded Agilent 4x180k PBM; binding buffer, salt, pH and temperature not given; high values mean tight binding; double strand, one strand shown; sequences stand for … in …GCCTAGGGAGATTAGAGTATCGGTCGA

Sequence	binding signal (log2 normalized intensity)
AGCAAACCTGTCTCTCTGCATTCCTCCTGG	-0.27
ATACTATATTTGTCCCACATTAACTGTGCT	-0.987
ATTGAATTAAACACAGTTGCCTATGCCCTT	1.59
TGAAAGTCAACAAGATTCCTTGAGCATTCC	-1.16
TGGTGGCAATGTGTCAGAGAAGGAGCCAGA	-1.15
CAGGTGAGAGGCCTCTAAGCATAACTGGTT	-1.06
CCCCAGAGGTGGAATCTATAGAGGCAGTGA	-1.16
ACCTTTGTTCACATTTGTGCTCAGCCAACA	-0.562
CCTATGGTATGTATGGAATGTCACTTTCTG	1.93
CAGAGACATGCTAGCCTCGAGATAACCCAC	-0.938
AATGACAGTGTCAGGACCTTGCTCCTGTTC	1.28
GGGCTAACGCTGCTGTCTGTCTTCGGGCGG	-0.123
ATAGGCACATATTGGATCTCTGGTATTTTG	1.59
CAAAATCGCCACTACAAAGGGAATCAGGTT	-0.856
ACCCAGATAGGCAAAGTGGCTAGGACCTTT	2.25
ATGCGTCATCCGCATCTGAAGATAAGAGAA	-1
TTTTACAGACAGGCATGACAGAGTGTCCTG	0.738
ACCTCTGTAATAACTGCAGTGCCACTCGGG	0.363
TTCCGCGGACGTGTTCCCACAGTGCCCTCT	3.37
CTGCCACATTTTTATCCTTTTTTGAAGGTT	2.23
TTCACCTTTGTCCTCTCTCCCACAAGGGCA	2.31
TGCGGAATGACATTCAGCAACTGGGTTCAG	1.01
GGGGTCAAAGTCCCCTGAGCTTGAGTCCAT	5.36
TCCTGACAATTGGCCAAAGTTCAGTAAATC	3.08

Sequence	binding signal (log2 normalized intensity)
ACTTTGCCTTTTGGCTAAAGTCCAAATTCC	5.14
AAACCTTTGCCCCACTCTCCTCTGCCACTG	2.63
ATCCTGCTAGCAGCTCTCTCCCTTATCTGA	-1.07
CGAACTAGCTTGGTGCAGGGGCGGGGCCGC	-1.06
GCGTGAGCCACCGCGCCCCGCCCCCAGTGC	5.65
GGTATGCATGGAATGCAGGAGATCCAGTAG	-0.65
TGAAATGGTTACAAAGGTCACACTCCTGTG	4.16
GTTCACTTGCCAAGCCTAGTTTTGATTATC	-0.813
CTTAAGACCTAGATGGAATGTTGTGTCTTC	0.882
CTAGTTAAGTCACTGGGCTGATGACCTTTG	6.19
CCTCCAGGGAGGGGAGAGGGGGTTAAAGGT	1.22
CATTCCACAGCAGAGGAGCCCTGGGCTCAG	-1.09
ATCGCCTAGTACTCCTGCCCCTGTGCAATA	2.67
CAGGTGTAACAGTTGCAGCTTCAGGAGCTG	-1.23
TGTATACTTATGTAGAAAGATATCTCTGTG	0.374
AGGGAGACAAAGTGTCACAAACTATCAGTG	-1.18
TGGTAAGCAGACCCCTACTGGGGATGGACT	1.94
TCTTGGGTCAAAGTCTCTGGTACAAAATTA	2.41
AGGTCGCAAGCACTGGCTCTGGGGTCAAAG	3.1
AGTCCAGAACCTGGAACCTAGAGGCCTTTC	-1.05
CTGGTGGACTTTGCTCTGCTCATTTTTCCC	4.96
TGCAATTCTCTTTGCCAAAGCATAGCAAGA	-1.28
TTCTAAAGAACATTCCAGCTTTGAAGTGCT	-1.09
AAAAACAACTAAAGGAATGCGCCTGAACTG	-1.15

Sequence	binding signal (log2 normalized intensity)
TACTTGAACCCTACTCATAATTGCTATGTC	0.51
TCTGCAGCAGATGGCCAGCCTTTGGACTTT	7.15
AGTAGCTCACAAATACTCACCCTTGGATTA	0.457
CCAAGGCTGAAGGTCTCGAGGCCTCTTTAT	-0.871
CTGATCAAAGGTCATTGGTATTGATAGCGC	4.8
CCAATGTGGAGCTGCTGAACTATTGAACCA	2.66
CCTGTGTGCATGGAGTGCACTGTGATCTTT	3.48
TAGAATGGAACTGAAGGCAGGAAAGGGCCT	-0.886
AAACGGATGCAAAGGCTGAGCCCTTATCTT	-1.12
AGTTGTTCAAAGTCCATGTGTTAAATAATA	3.49
GGAATTCTCTTCCCAACAGGAGATTACTTC	-1.16
TGAAGACACTGAGGAAAAGCTGTCTACAAA	-0.747
ACAGGTTGGAGACGCAGAGAAGCACTGCAG	-1.09
CTTTACCACCCTCACAGCTCAATCCAACAA	-1.01
AGAAGGGGACAAGCACATTAGGAGGAAAAA	-1.11
CCTCTGTTGCTTCAAAGGGCAAAAGGGCAA	5.03
CAACAACACAGATCATATCATTTATTTGCT	-1.06
ACTTGCGGGCGGGGGGTGGGGTGGAAGCTA	-1.09
CCTCCCCCTGGGGACAGGTGTTAATGTCTA	1.48
TGTGGTGTTCGCTAAGATGTAGCAAGAATG	1.28
ACGTTCACGTCTCAAGCTTCAGGAGTCCAC	2.07
CCTGCAACAGCCCCATGAGATAGGTACTAT	-0.519
TGTCCCCCAGGTCCAGCCTTTGGGCAGGGG	2.37
AGGCAGGAGTTAACTAACAAAAGCAGAGGA	-1.21

Sequence	binding signal (log2 normalized intensity)
ACTCCTCTATCAGTACAAATAAACCTTTGA	3.51
GCTGCCTCCTATCCTCTGATCCCCAGGTCA	2.32
TGTCATCTCTGGCTAACAGGTCAGGGGCTC	0.92
ACTCAGTGGGGTGTCTGTGTGCCTCAGATT	1.6
GGTGGACTTTGTAGCTCAAACAGTCTAAAA	2.3
TGAACCTTCTTCTTGCAGTCCACATTTCTG	1.52
ATAAGAACGCTAGACACTGGGGACTAGTAG	-1.21
TGGCTAATAGATGGCGCAGCGGGTCAATTA	1.92
ATAAGCCCTGAGTAGTTCTTCTGGTTAGTT	1.55
AGCTGGGCCTGTGCTGGGGACAAAAGCTGA	-0.959
AAGTTAACTTTGTAACTAACAACTGACCTT	3.5
GGTAGCCTGGGTTAAAGTCCGTTACAGACA	3.68
CAAACCAAAGAGAAATGGTGTGGACAGCAG	-1.11
TGTTAGCAGAAACCATCTGGCTTGGCCCCC	3.89
AATTGTGGCTTGTGTAGTTATCCAGTAACA	1.23
GTGGGGCAGAAAGGGCATGGATTTAGATAA	-1.01
TACATAGAGGGGGTCTAGGTTGGAGGAGCT	-0.921
AGTGGAAGGTATGGAGCTAAACAATTAAAG	-1.06
ATGGGCACCTCGTCCAGGTGTCTTCAGGCT	-1.19
GAGAATCCACCTGCCTGCTTGGCCTCTCCA	-1.1
TCTGCCGCTGCGCCACAGCACCACCTGCTG	-1.11
